# Experimental data: PubChem BioAssay AID504832 (National Center for Advancing Translational Sciences (NCATS), 2011)
# “And” between values parts separate entries of the source, which are not always exact repeats. Equal values may be shown once. Among all 310,000 compounds or so, about 18,000 (5.8%) were called active. The shares of active, inactive and inconclusive entries below differ from those in the screen. The call rests on the fitted dose curve; in most records, active means well fitted inhibition curve with a large enough effect; inconclusive means small, poorly fitted or top-dose-only effect, or another doubt; inactive means no such curve, though single readings can be large or run the other way. Potencies beside an inconclusive call are fits to weak or partial responses and may not hold up.
# Assay: Primary qHTS for delayed death inhibitors of the malarial parasite plastid, 48 hour incubation
# Conditions: P. falciparum luciferase growth in erythrocytes; series mostly up to 28.7 µM
# Procedure, shortened: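 Read-out is firefly luciferase luminescence from an integrated reporter in P. falciparum, so falling signal marks reduced parasite growth. Infected erythrocytes were at 2% hematocrit and 0.1% parasitemia (final) in Albumax-supplemented RPMI 1640.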
# Potency means the concentration at half of the fitted maximal effect; tags describe the fitted curve by direction and shape.
row,Structure (SMILES),Potency
1,O=C(O)CCc1ccc(-c2ccc(Br)cc2)n1NC(=O)c1ccc([N+](=O)[O-])cc1,inactive
2,CSc1nc2ccc(Nc3nc(N4CCOCC4)nc(N4CCOCC4)n3)cc2s1,active: 9.28 µM
3,Cc1nc(SCC(=O)c2ccc(F)c(F)c2)[nH]c(=O)c1Oc1ccc(Cl)cc1,"inconclusive: 0.657 µM [inhibitor, partial curve]"
4,CCN1C(=S)N[C@@H](c2cccc(C(F)(F)F)c2)C(C(=O)OC)=C1C,"inconclusive: 8.28 µM [inhibitor, partial curve, poor fit]"
5,Cc1ccc2[nH]c(C(=O)NN=C3CCCCC3)c(-c3ccccc3)c2c1,"inconclusive: 11.7 µM [inhibitor, partial curve, poor fit]"
6,COc1cc(-c2nc(S(=O)(=O)c3ccc(Cl)cc3)c(N3CCOCC3)o2)cc(OC)c1OC,"inconclusive: 1.65 µM [inhibitor, partial curve, poor fit]"
7,C/C(=N\NC(=S)Nc1cccc(C)c1)c1cc2ccccc2o1,"inconclusive: 18.5 µM [inhibitor, single point]"
8,CC(C)C[C@]1(c2ccccc2)ON(c2ccccc2C(F)(F)F)C1=O,active: 9.28 µM
9,COc1ccc(Cl)cc1NC(=O)CN(C)C(=O)c1ccc(N2CCCCC2)c([N+](=O)[O-])c1,active: 13.1 µM
10,CC[N+]1(C)CCCC(OC(=O)C(O)(c2ccccc2)c2ccccc2)C1 (stereo unspecified),"inconclusive: 19 µM [inhibitor, partial curve, poor fit] and inconclusive: 18.5 µM [inhibitor, single point]"
11,CCOC(=O)c1ccc(NC(=O)COc2ccccc2CNCCO)cc1,"inconclusive: 13.1 µM [inhibitor, single point]"
12,COc1ccccc1CNC(=O)CCS(=O)(=O)c1ccc2c(c1)CC(C)N2C(=O)C1CC1 (stereo unspecified),"inconclusive: 20.8 µM [inhibitor, single point]"
13,Cc1snc2sc(C(=O)c3ccc(F)cc3)c(N)c12,inactive
14,O=[N+]([O-])c1cc(CN2CCN(c3cccc(C(F)(F)F)c3)CC2)c2cccnc2c1O,active: 0.828 µM
15,COc1cc(OC)cc(C(=O)N[C@H](C(=O)Nc2nc3c(s2)CCCC3)C(C)C)c1,"inconclusive: 13.1 µM [inhibitor, partial curve, poor fit]"
16,O=[N+]([O-])c1ccccc1S(=O)(=O)Nc1cccnc1,inactive
17,O=S(=O)(c1cc(C(F)(F)F)ccc1Cl)N1CCN(c2ncnc3ccccc23)CC1,"inconclusive: 11.7 µM [inhibitor, single point]"
18,Cc1ccc(C)n1-c1ccc(C(=O)NCc2ccncc2)cc1,"inconclusive: 13.1 µM [inhibitor, partial curve]"
19,Cn1cc(C(=O)c2ccc(Cl)cc2Cl)cc1C(=O)N/N=C(\N)COc1ccc(F)cc1,"inconclusive: 18.5 µM [inhibitor, single point]"
20,O=C(Nc1nnc(SCCN2CCOCC2)s1)C1CC(=O)N(c2ccc(F)cc2)C1 (stereo unspecified),"inconclusive: 8.28 µM [inhibitor, partial curve]"
21,COc1ccc(C)cc1NS(=O)(=O)c1ccc(Cl)nc1,"inconclusive: 13.1 µM [inhibitor, single point]"
22,CCOc1ccccc1OCCN1CCC(Cc2ccccc2)CC1,"inconclusive: 18.5 µM [inhibitor, single point]"

row,Structure (SMILES),Potency
1,O=C1NC(=O)[C@]2(Cc3ccccc3N3CCN(c4ccccc4)CC32)C(=O)N1c1ccccc1 (stereo partly specified),"inconclusive: 10.4 µM [inhibitor, single point]"
2,C=CC[n+]1c(-c2ccc(Cl)cc2Cl)csc1Nc1c(C)n(C)n(-c2ccccc2)c1=O,"inconclusive: 16.5 µM [inhibitor, single point]"
3,Nn1c(SCC(=O)Nc2ccccc2F)nnc1-c1cccnc1,inactive
4,Cn1c(Cc2ccccc2)nnc1SCCC(=O)Nc1ccccc1,"inconclusive: 0.465 µM [inhibitor, full curve, poor fit]"
5,CSCCC(NS(=O)(=O)c1ccc2c(c1)OCCO2)C(=O)N(C)Cc1ccc(C)cc1 (stereo unspecified),"inconclusive: 11.7 µM [inhibitor, single point]"
6,Cc1ccc(C(=O)Nc2c(C(=O)NCc3ccco3)cnn2-c2ccccc2)cc1,"inconclusive: 10.4 µM [inhibitor, single point]"
7,COc1ccc(CS(=O)c2nc(C)cc(C)c2S(C)(=O)=O)cc1 (stereo unspecified),active: 11.7 µM
8,CCCCC(=O)Nc1cccc(C(=O)Nc2ccccc2C(=O)O)c1,inactive
9,Cc1ccccc1C(=O)NNC(=O)CSc1nnc(C)n1-c1ccccc1,inactive
10,O=C(Nc1ccc([N+](=O)[O-])cc1)Nc1ccc(N2CCOCC2)c2nonc12,"inconclusive: 13.1 µM [inhibitor, single point]"
11,COC(=O)CCCC1=CC2=CC(=O)C(C)(OC(=O)c3cccs3)C(=O)C2=CN1CCCOC(C)C (stereo unspecified),"inconclusive: 11.7 µM [inhibitor, single point]"
12,CCCCCCn1c(CN2CCN(Cc3ccccc3)CC2)nc2c1c(=O)n(C)c(=O)n2C,"inconclusive: 1.47 µM [inhibitor, full curve]"
13,CCOC(=O)c1ccc(N2C(=O)C3C(/C=C/c4ccccc4)OC4(C(=O)c5ccccc5C4=O)C3C2=O)cc1 (stereo unspecified),inactive
14,CCn1c(Cc2ccccc2)nnc1SCC(=O)Nc1ccccc1N1CCOCC1,"inconclusive: 5.86 µM [inhibitor, partial curve]"
15,CC1CN(C(=O)CCC(=O)NCCCN2CCC(Cc3ccccc3)CC2)c2cc(Cl)ccc2O1 (stereo unspecified),"inconclusive: 11.7 µM [inhibitor, partial curve]"
16,O=C(NC(=O)c1c(Cl)cccc1Cl)Nc1ccc(Oc2cccnc2)nc1,"inconclusive: 13.1 µM [inhibitor, partial curve, poor fit]"
17,Cc1ccc(OCC(O)CNC2CCCC2)c(C)c1 (stereo unspecified),"inconclusive: 18.5 µM [inhibitor, single point]"
18,CN(CC(=O)Nc1ccc(F)c(F)c1F)C(=O)CCCSc1nc2ccccc2[nH]1,"inconclusive: 1.85 µM [inhibitor, partial curve, poor fit]"
19,CCN(c1ccccc1)S(=O)(=O)c1cc(C(=O)NCc2ccccn2)ccc1C,"inconclusive: 2.62 µM [inhibitor, partial curve]"
20,COc1ccc(CN2CCN(Cc3csc(C(C)=O)c3)CC2CCO)c(C)c1C (stereo unspecified),inactive
21,COc1cc(C(=O)NCC(=O)N2CCN(S(=O)(=O)c3cc(C)ccc3C)CC2)cc(OC)c1OC,"inconclusive: 7.38 µM [inhibitor, partial curve, poor fit]"
22,Cn1cccc1-c1cc(C(=O)N/N=C/c2cc(Br)ccc2O)[nH]n1,"inconclusive: 6.57 µM [inhibitor, partial curve]"

row,Structure (SMILES),Potency
1,Cc1ccc(CSCCNS(=O)(=O)c2ccccc2)cc1,inactive
2,O=C(NNC(=O)c1ccncc1)Nc1ccc([N+](=O)[O-])cc1,"inconclusive: 11.7 µM [inhibitor, single point]"
3,COc1cc(/C=N/NC(=O)Cc2ccccc2)ccc1Oc1ccc([N+](=O)[O-])cc1[N+](=O)[O-],inactive
4,O=C(NCc1cccc(Cl)c1)c1ccc2c(c1)OCCO2,inactive
5,Cc1ccc2c(c1)CC(C)N2S(=O)(=O)c1nnc(NC(=O)CC(C)C)s1 (stereo unspecified),"inconclusive: 10.4 µM [inhibitor, partial curve, poor fit]"
6,CC(=O)N1c2ccc(S(=O)(=O)NCC3CCC(C(=O)NCc4ccc(C)cc4)CC3)cc2CC1C (stereo unspecified),"inconclusive: 4.65 µM [inhibitor, single point]"
7,COc1ccc(N2CCN(CCNC(=O)C3CCN(S(=O)(=O)c4cccs4)CC3)CC2)cc1,inactive
8,CC(=O)Nc1ccccc1OCC(=O)NCCc1ccc(Cl)cc1Cl,inactive
9,Cc1cc2ncn(C(=O)c3ccc(F)cc3)c2cc1C,inactive
10,COc1ccc(/C=N/N2CCN(C3c4ccccc4-c4ccccc43)CC2)cc1OC,inactive
11,COC(=O)c1cc(S(=O)(=O)N2CCN(c3cc(C)ccc3C)CC2)c[nH]1,"inconclusive: 13.1 µM [inhibitor, single point]"
12,c1ccc2c(c1)[nH]c1ccncc12,"inconclusive: 11.7 µM [inhibitor, single point]"
13,S=C(NCc1ccccc1)N1CCn2cccc2C1c1cccnc1 (stereo unspecified),active: 4.65 µM
14,Cc1ccc(C(=O)NC2CCN(CCCC(=O)c3ccc(F)cc3)CC2)cc1,active: 10.4 µM
15,CC(C)c1ccc(-c2nnn(CCC(=O)O)n2)cc1,"inconclusive: 2.62 µM [inhibitor, single point]"
16,N#Cc1ccc(-c2ccc(OCC(O)Cn3nnc4ccccc43)cc2)cc1 (stereo unspecified),"inconclusive: 4.15 µM [inhibitor, single point]"
17,COc1ccc(C2CCCN2C(=O)Nc2ccc(F)cc2)cc1OC (stereo unspecified),inactive
18,CCOC(=O)C1=C(N)Oc2c(oc(CO)cc2=O)C1c1ccc(F)cc1 (stereo unspecified),"inconclusive: 11.7 µM [inhibitor, single point]"
19,Cc1ccc(N(CC(=O)Nc2cccc(C)c2)S(=O)(=O)c2cccc3nonc23)cc1,"inconclusive: 14.7 µM [inhibitor, partial curve, poor fit]"
20,COC(=O)C1=C(C)NC2=C(C(=O)CCC2)C1c1cn(Cc2ccc(Cl)cc2Cl)nc1-c1ccccc1 (stereo unspecified),active: 2.62 µM
21,COc1cc(/C=C/C(=O)N2CCc3ccccc3C2)cc(OC)c1OC,"inconclusive: 10.4 µM [inhibitor, partial curve, poor fit]"
22,Cn1c(SCC(=O)NC2CCCC2)nnc1-c1ccccn1,inactive
